Here are results for 40 compounds from the antibiotic and cytotoxicity screens of Wong et al. (2023).

This is one part of the list.

In the assay the test system is HSkMC (human skeletal muscle cells). Nature of the assay: cytotoxicity call (relative viability < 0.9). As to conditions: 10 µM.
On to `C[C@@H]1CCCCO[C@@H](CN(C)C(=O)CCC(F)(F)F)[C@@H](C)CN([C@@H](C)CO)C(=O)c2cc(NS(=O)(=O)c3ccc(F)cc3)ccc2O1`, for which the cytotoxicity call was “inactive”.
The result for `Cc1ccc(S(=O)(=O)Nc2ccc3c(c2)C(=O)N([C@@H](C)CO)C[C@@H](C)[C@@H](CN(C)C(=O)Nc2ccc(C(F)(F)F)cc2)O3)cc1` reads “inactive”.
Then `C[C@@H]1CN([C@H](C)CO)C(=O)c2cc(NC(=O)Cc3ccccc3)ccc2O[C@@H](C)CCCCO[C@@H]1CN(C)C(=O)Cc1ccccc1`, with “inactive”; and `CN(C)CC(=O)N[C@@H]1C=C[C@@H](CC(=O)NCCN2CCCCC2)O[C@@H]1CO`, with “inactive”.
For `Cc1ccc(S(=O)(=O)Nc2cccc3c2O[C@@H](CN(C)C(=O)NC(C)C)[C@H](C)CN([C@@H](C)CO)C3=O)cc1`, the cytotoxicity call was “inactive”.
Then `C[C@H]1CCCCO[C@H](CN(C)Cc2ccc3c(c2)OCO3)[C@@H](C)CN([C@@H](C)CO)C(=O)c2cc(NC(=O)Nc3cccc4ccccc34)ccc2O1`, with “inactive”.
The result for `CCC=CCC=CCC=CCC=CCC=CCC=CCCC(=O)O` reads “inactive”; that for `C[C@H](CO)N1C[C@H](C)[C@H](CN(C)Cc2ccc(C(=O)Nc3ccccc3N)cc2)Oc2c(NC(=O)Nc3cccc4ccccc34)cccc2C1=O`, “inactive”; that for `Cc1ccc2oc(=O)cc(Cl)c2c1`, “inactive”.
Then `Nc1ccc(S(=O)(=O)[N-]c2cnc3ccccc3n2)cc1.[Na+]`, with “inactive”; and `CC(=O)O[C@@H]1[C@@H](OC(C)=O)[C@@H]2OC[C@@H](O2)[C@H]1OC(C)=O`, with “inactive”.
In the case of `Nc1ncn(Cc2ccccc2)n1`, the cytotoxicity call is “inactive”.
The result for `C[C@H](CO)N1C[C@H](C)[C@@H](CN(C)Cc2ccc(C(=O)O)cc2)Oc2c(NC(=O)c3ccc(-c4nccs4)cc3)cccc2C1=O` reads “inactive”; that for `C[C@@H]1CN([C@H](C)CO)C(=O)Cc2cc(NC(=O)Cn3cnnn3)ccc2O[C@@H]1CN(C)S(=O)(=O)c1cccs1`, “inactive”; that for `C[C@@H]1CN([C@H](C)CO)C(=O)c2cc(N(C)C)ccc2O[C@H]1CN(C)S(C)(=O)=O`, “inactive”.
With `C[C@H]1CN([C@@H](C)CO)C(=O)c2cccc(NS(C)(=O)=O)c2O[C@H]1CN(C)C(=O)Nc1ccc2c(c1)OCO2`, the cytotoxicity call is “inactive”.
The result for `C[C@H](CO)N1C[C@H](C)[C@@H](CN(C)Cc2ccc(Cl)c(Cl)c2)Oc2c(NC(=O)NC3CCCCC3)cccc2C1=O` reads “inactive”; that for `CNCc1cc2ccccc2s1`, “inactive”.
Then `CC[C@@H](Sc1n[nH]c(=O)[nH]c1=O)C(=O)O`, with “inactive”.
Turning to `Cc1noc(C)c1NC(=O)N(C)C[C@H]1Oc2ccc(NC(=O)NC(C)C)cc2C(=O)N([C@@H](C)CO)C[C@@H]1C`, the cytotoxicity call was “inactive”.
For the compound `Cn1cc(-c2nc(N[C@@H]3CCCC[C@@H]3N)c(F)c3c2C(=O)NC3)cn1`, the cytotoxicity call is “inactive”.
The result for `COCCOC(=O)N1C(=O)[C@@]2(c3cc(C#CC4=CCCCC4)ccc31)[C@H](C(=O)N1CCc3cc(OC)c(OC)cc3C1)[C@H]1C(=O)O[C@H](c3ccccc3)[C@H](c3ccccc3)N1[C@@H]2c1ccccc1OCCO` reads “active”; that for `Cc1noc(C)c1S(=O)(=O)Nc1ccc2c(c1)C(=O)N([C@@H](C)CO)C[C@@H](C)[C@@H](CN(C)S(C)(=O)=O)O2`, “inactive”.
Then `C[C@@H]1CCCCO[C@@H](CN(C)C(=O)Cc2ccccc2)[C@@H](C)CN([C@H](C)CO)C(=O)c2cc(NC(=O)Cc3ccccc3)ccc2O1`, with “inactive”.
Then `COc1ccc(NC(=O)Nc2ccc3c(c2)C(=O)N([C@@H](C)CO)C[C@@H](C)[C@@H](CN(C)C(=O)Nc2ccc(C(F)(F)F)cc2)O3)cc1`, with “inactive”; and `C[C@@H]1CN([C@H](C)CO)C(=O)CCCn2cc(nn2)CO[C@@H]1CN(C)S(=O)(=O)c1ccc(-n2cccn2)cc1`, with “inactive”; and `C[C@H]1CN([C@@H](C)CO)S(=O)(=O)c2ccc(C#Cc3cccnc3)cc2O[C@@H]1CN(C)CC1CCOCC1`, with “inactive”.
In the case of `Cc1noc(C)c1NC(=O)Nc1ccc2c(c1)C(=O)N([C@H](C)CO)C[C@H](C)[C@H](CN(C)Cc1ccccc1)OCCCC[C@@H](C)O2`, the cytotoxicity call is “inactive”.
As for `C[C@@H]1CN([C@@H](C)CO)C(=O)c2cc(NC(=O)C3CCCCC3)ccc2O[C@@H](C)CCCCO[C@@H]1CN(C)S(=O)(=O)c1ccc(Cl)cc1`, the cytotoxicity call is “inactive”.
Then `O=C(CCCCCCC(=O)Nc1ccc([C@H]2O[C@@H](CSc3ccccc3)C[C@H](c3ccccc3)O2)cc1)NO`, with “inactive”; and `C[C@H](CO)N1C[C@H](C)[C@@H](CN(C)S(=O)(=O)c2ccccc2)Oc2ccc(NC(=O)Cc3ccccc3)cc2CC1=O`, with “inactive”; and `C[C@@H]1CN([C@@H](C)CO)C(=O)Cc2cc(NC(=O)Nc3ccc(C(F)(F)F)cc3)ccc2O[C@@H]1CN(C)Cc1ccc(C(=O)O)cc1`, with “inactive”.
The result for `O=C(N1CCOCC1)[C@]1(CCS(=O)(=O)c2ccccc2)N=C(c2ccc(OCCCO)cc2)O[C@@H]1c1ccccc1` reads “inactive”; that for `Cc1c(OCC(F)(F)F)ccnc1CS(=O)c1nc2ccccc2[nH]1` (stereo not given), “inactive”.
Then `COc1ccc(NC(=O)Nc2ccc3c(c2)C(=O)N([C@H](C)CO)C[C@H](C)[C@@H](CN(C)C(=O)Nc2cccc4ccccc24)O3)cc1`, with “inactive”; and `C[C@@H]1CCCCO[C@H](CN(C)C(=O)Nc2ccc(C(F)(F)F)cc2)[C@H](C)CN([C@@H](C)CO)C(=O)c2cc(NS(=O)(=O)c3ccc(Cl)cc3)ccc2O1`, with “inactive”; and `C[C@@H]1CCCCO[C@@H](CN(C)Cc2ccncc2)[C@H](C)CN([C@H](C)CO)C(=O)c2cc(NS(C)(=O)=O)ccc2O1`, with “inactive”.
With `Nc1cc(CO)ccn1`, the cytotoxicity call is “inactive”.
The result for `CC(=O)N[C@@H](C=O)[C@@H](O)[C@H](O)[C@H](O)CO` reads “inactive”; that for `C[C@@H]1CCCCO[C@H](CN(C)CC2CCCCC2)[C@H](C)CN([C@@H](C)CO)C(=O)c2cc(NC(=O)Nc3ccc(F)cc3)ccc2O1`, “inactive”.
